Test results from PubChem BioAssay AID504332 (National Center for Advancing Translational Sciences (NCATS), 2011).
Among all 350,000 compounds or so, about 31,000 (8.9%) were called active. The shares of active, inactive and inconclusive entries below differ from those in the screen. Calls come from the whole dose curve; as a rule, active = well fitted inhibition curve with a large enough effect; inconclusive = small, poorly fitted or top-dose-only effect; inactive = no such curve, though single readings can be large or run the other way. Potencies beside an inconclusive call are fits to weak or partial responses and may not hold up.

molecular target: Histone-lysine N-methyltransferase EHMT2 (Homo sapiens) (UniProt Q96KQ7); test: qHTS Assay for Inhibitors of Histone Lysine Methyltransferase G9a; details: G9a H3K9 monomethylation, AlphaScreen, 2 h; activity, negative = inhibition: at 59 µM (top of the series) unless noted; note: nearly all actives have a fitted effect of over 75% in size
Chain of UniProt Q96KQ7 (Q96KQ7 whole entry, looked up): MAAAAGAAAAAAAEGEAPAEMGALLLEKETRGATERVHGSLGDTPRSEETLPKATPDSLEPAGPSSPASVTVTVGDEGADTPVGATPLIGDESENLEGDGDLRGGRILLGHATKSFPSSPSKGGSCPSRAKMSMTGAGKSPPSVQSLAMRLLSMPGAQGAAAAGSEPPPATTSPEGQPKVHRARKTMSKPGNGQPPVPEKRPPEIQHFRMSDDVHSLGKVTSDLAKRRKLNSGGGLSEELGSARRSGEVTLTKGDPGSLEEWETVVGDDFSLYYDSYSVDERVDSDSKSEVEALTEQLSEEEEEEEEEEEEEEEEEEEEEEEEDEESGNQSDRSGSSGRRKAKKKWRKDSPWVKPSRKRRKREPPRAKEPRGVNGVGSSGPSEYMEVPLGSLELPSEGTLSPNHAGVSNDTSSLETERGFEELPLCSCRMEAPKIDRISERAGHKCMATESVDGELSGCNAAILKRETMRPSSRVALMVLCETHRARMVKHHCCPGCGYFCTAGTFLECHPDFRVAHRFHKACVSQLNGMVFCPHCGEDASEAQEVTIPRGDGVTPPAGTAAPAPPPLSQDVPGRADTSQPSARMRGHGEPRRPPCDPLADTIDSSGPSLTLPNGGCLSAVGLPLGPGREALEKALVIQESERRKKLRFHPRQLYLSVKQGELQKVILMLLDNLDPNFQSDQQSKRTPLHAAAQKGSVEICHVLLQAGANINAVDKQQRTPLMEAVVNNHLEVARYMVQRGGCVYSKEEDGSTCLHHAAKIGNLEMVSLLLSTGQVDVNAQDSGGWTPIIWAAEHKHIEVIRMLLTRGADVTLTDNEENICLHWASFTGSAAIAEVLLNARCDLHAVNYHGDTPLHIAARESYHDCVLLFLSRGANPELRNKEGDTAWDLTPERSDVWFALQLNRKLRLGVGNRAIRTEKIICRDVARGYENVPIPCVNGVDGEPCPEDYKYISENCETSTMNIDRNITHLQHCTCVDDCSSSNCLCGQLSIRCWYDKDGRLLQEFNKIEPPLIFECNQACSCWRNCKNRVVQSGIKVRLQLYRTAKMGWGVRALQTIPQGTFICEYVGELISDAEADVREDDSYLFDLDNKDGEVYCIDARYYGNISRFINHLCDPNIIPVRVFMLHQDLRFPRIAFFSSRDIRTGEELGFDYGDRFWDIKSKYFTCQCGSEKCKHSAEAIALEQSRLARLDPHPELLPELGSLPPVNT
Method in brief: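 AlphaScreen detection with an anti-monomethyl H3K9 antibody quantified product after a 2 h room-temperature reaction containing 500 nM biotinylated H3K9 peptide, 20 µM SAM and 20 nM enzyme, which had been preincubated 15 min with compound.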
% is set by controls: 0 for no effect and ±100 for the full control effect; potency is the fitted concentration of half-maximal effect; tags give direction and shape of the fitted curve.

Q: For `Cc1cc(C)c2c(N)c(C(=O)c3ccccc3)oc2n1`, which Potency is on record?
A: inconclusive: 10 µM [inhibitor, partial curve, poor fit]

Q: `O=C(Nc1ccc2oc(-c3cc(Br)ccc3Cl)nc2c1)c1cc2ccccc2o1` was tested. Which Potency did it give?
A: inconclusive: 7.94 µM [inhibitor, partial curve]

Q: `O=C(NCc1cccs1)c1csc2ccccc12` was tested. Which Potency did it give?
A: inconclusive: 50.1 µM [inhibitor, partial curve, poor fit]

Q: How did the Potency turn out when `Cn1c(=O)c2c(ncn2CC2OCCO2)n(C)c1=O` was run?
A: inactive

Q: How did the Potency turn out when `CN(C)c1cccc(C(=O)NC2CCCCCC2)c1` was run?
A: active: 8.91 µM

Q: For `O=C(CN1CCCCC1)Nc1ccc(NC(=O)c2ccccc2Cl)cc1Cl`, which Potency is on record?
A: active: 10 µM

Q: How did the Potency turn out when `O=C(CN1C(=O)NC2(CCCCC2)C1=O)N(Cc1ccco1)Cc1cccs1` was run?
A: inconclusive: 89.1 µM [inhibitor, partial curve, poor fit]

Q: For `Cc1ccc(CNC(=O)CCC(=O)N2CC3CCCN3c3ccccc32)cc1` (stereo not drawn), which Potency is on record?
A: inactive

Q: `CN(C(=O)c1ccccc1C(=O)c1ccccc1)C1CCS(=O)(=O)C1` (stereo not drawn) was tested. Which Potency did it give?
A: inconclusive: 89.1 µM [inhibitor, single point]

Q: Which Potency does the source give for `C#CCSc1nc2[nH]ncc2c(=O)[nH]1` here?
A: inconclusive: 10 µM [inhibitor, partial curve, poor fit]

Q: For `Cc1cccc(C(=O)OCC(=O)Nc2ccc(N3CCCCC3)cc2)c1O`, which Potency is on record?
A: inconclusive: 89.1 µM [inhibitor, partial curve, poor fit]

Q: For `C=CCOC(=O)C1=C(C)NC(=S)C(C#N)(CC=C)C1c1ccccc1Cl` (stereo not drawn), which Potency is on record?
A: inconclusive: 89.1 µM [inhibitor, partial curve, poor fit]

Q: With `CCc1ccc(/C=N/n2c(C3CCCCC3)n[nH]c2=S)cc1` as the molecule, how does the Potency read?
A: active: 31.6 µM

Q: With `CCN(CC)C(=O)CSc1nc2c(sc(=S)n2CC)c(=O)n1-c1ccccc1` as the molecule, how does the Potency read?
A: inconclusive: 89.1 µM [inhibitor, single point]

Q: For `O=C(COC(=O)/C=C/c1ccco1)Nc1ccc(F)cc1Cl`, which Potency is on record?
A: inconclusive: 50.1 µM [inhibitor, partial curve, poor fit]

Q: For `COCCCN(C(=O)c1ccco1)c1nc(-c2ccc(OC)cc2)cs1`, which Potency is on record?
A: inconclusive: 100 µM [inhibitor, single point]

Q: `O=C(CSC1=Nc2ccccc2C2=NC(CCC(=O)NC3CCCCC3)C(=O)N12)Nc1cccc(C(F)(F)F)c1` (stereo not drawn) was tested. Which Potency did it give?
A: inactive

Q: With `Cc1ccccc1NC(=S)N(C)Cc1cccs1` as the molecule, how does the activity, negative = inhibition read?
A: inactive: -2.95% [at 12.7 µM]

Q: With `Cc1cc(Cl)ccc1NC(=O)c1cccc(NC(=O)N2CCSc3ncccc32)c1` as the molecule, how does the Potency read?
A: inconclusive: 5.62 µM [inhibitor, single point]

Q: How did the Potency turn out when `O=C(N/N=C/C(Cl)=C/c1ccc([N+](=O)[O-])cc1)C(=O)Nc1ccccc1C(=O)O` was run?
A: active: 35.5 µM

Q: For `CCN(C)Cc1c(C(=O)N2CCc3ccccc3C2)nc2ccc(Cl)cn12`, which Potency is on record?
A: inconclusive: 50.1 µM [inhibitor, partial curve, poor fit]

Q: How did the Potency turn out when `COc1cc(OC)c(NC(=O)N2CCSc3ccccc32)cc1Cl` was run?
A: inconclusive: 31.6 µM [inhibitor, partial curve, poor fit]

Q: With `CCOCc1nnc(NC(=O)c2cc(OC)cc(OC)c2)s1` as the molecule, how does the Potency read?
A: active: 31.6 µM

Q: For `O=C(CCOc1ccccc1)N(Cc1cccnc1)c1nc2c(F)cc(F)cc2s1`, which Potency is on record?
A: inactive

Q: `COc1ccc(C2CC(=O)Nc3cc(C)c(C)cc32)c(OC)c1OC` (stereo not drawn) was tested. Which Potency did it give?
A: inactive

Q: For `O=C(Nc1cc(C(F)(F)F)ccc1N1CCCCC1)c1cccc([N+](=O)[O-])c1`, which Potency is on record?
A: inconclusive: 44.7 µM [inhibitor, partial curve, poor fit]

Q: `COCCNC(=O)C(C#N)c1nc2ccccc2nc1N1CCCCCC1` (stereo not drawn) was tested. Which Potency did it give?
A: inconclusive: 3.16 µM [inhibitor, full curve, poor fit]

Q: `Cc1ccc(CNC(=O)Cn2cc(S(=O)(=O)Cc3ccccc3Cl)c3ccccc32)cc1` was tested. Which Potency did it give?
A: inactive

Q: Which Potency does the source give for `Cc1ccc(C(=O)OCC(=O)NC2CCCCC2)s1` here?
A: inactive

Q: `CCOc1ccc(NC(=O)C(CC)n2c(=O)c(-c3ccccc3NC(C)=O)nc3ccccc32)cc1` (stereo not drawn) was tested. Which Potency did it give?
A: inactive

Q: How did the Potency turn out when `Cc1ccc(NC2CCCN(C(=O)c3cc(C(C)C)[nH]n3)C2)cc1C` (stereo not drawn) was run?
A: inconclusive: 22.4 µM [inhibitor, partial curve, poor fit]

Q: How did the Potency turn out when `Cc1cc(C(=O)COc2ccc(-c3nnco3)cc2)c(C)n1Cc1ccccc1` was run?
A: inconclusive: 63.1 µM [inhibitor, partial curve, poor fit]

Q: For `CCCS(=O)(=O)c1cn2cccc(N)c2c1S(=O)(=O)CCC`, which Potency is on record?
A: inconclusive: 3.16 µM [inhibitor, partial curve, poor fit]

Q: `COc1cc2c(cc1NC(=O)C(C)N1CCN(S(=O)(=O)c3ccccc3[N+](=O)[O-])CC1)oc1ccccc12` (stereo not drawn) was tested. Which Potency did it give?
A: inconclusive: 0.562 µM [inhibitor, partial curve, poor fit]

Q: How did the activity, negative = inhibition turn out when `CCOC(=O)/C=C/CN(C(=O)OC(C)(C)C)S(=O)(=O)N1CC=CC1` was run?
A: inconclusive: -93.5% [inhibitor]

Q: With `COc1ccc(S(=O)(=O)N2CCCCCC2)cc1C(=O)N1CCCCC1` as the molecule, how does the Potency read?
A: inconclusive: 7.94 µM [inhibitor, full curve]

Q: `Cc1ccc(CCNC(=O)C2CCN(S(=O)(=O)c3ccc4nc5c(c(C(=O)O)c4c3)CCCC5)CC2)cc1` was tested. Which Potency did it give?
A: inconclusive: 79.4 µM [inhibitor, single point]

Q: How did the Potency turn out when `O=C(O)CC/C=C\CC[C@@H]1[C@@H](N2CCCCC2)[C@@H](O)C[C@@H]1OCc1ccc(-c2ccccc2)cc1` was run?
A: inconclusive: 7.08 µM [inhibitor, single point]

Q: With `CC(=O)c1cc(C(=O)Nc2ccc(C(=O)O)cc2)oc1C` as the molecule, how does the Potency read?
A: inconclusive: 79.4 µM [inhibitor, partial curve]

Q: With `CCNC(=S)Nc1ccc(N(c2ccccc2)C(C)C)cc1` as the molecule, how does the Potency read?
A: inconclusive: 39.8 µM [inhibitor, single point]

Q: Which Potency does the source give for `COC(=O)C(CCSC)NC(=O)C1CCN(c2ncnc3c2nc2n3CCCCC2)CC1` (stereo not drawn) here?
A: inactive

Q: Which Potency does the source give for `CC(C)CNC(=S)NC(=O)c1ccc(Cl)cc1Cl` here?
A: inactive

Q: Which activity, negative = inhibition does the source give for `CN(C)c1ncc2nc(-c3cc(F)cc(F)c3)c(=O)n(Cc3cccs3)c2n1` here?
A: inactive: 0.526% [at 12.7 µM]
